# Results: the supplement of paper PMC11417369
# The other results are listed elsewhere or left out.
# System: PfSIP2 AP2 domain 1 (GST-tagged)
# Assay: gcPBM binding intensity (ln(normalized median fluorescence intensity)); higher = stronger DNA binding
# Outline: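 Binding intensity is the highest Masliner-normalised natural-log median intensity over replicate spots in either probe orientation. To obtain it, GST-tagged P. falciparum DNA-binding domains made in E. coli were incubated for 1 h on an Agilent 4 × 180k array of primer-extended double-stranded 36-bp intergenic genomic probes plus negative controls. Detection used Alexa488 anti-GST antibody with scanning at 488 nm.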
row,Sequence,gcPBM binding intensity (ln)
1,AAAAATTACCCATCCATACACACATATTTTTTTTAA [CACACA_site2190],7.05
2,ATGTAAGACAAAAAGGGTACATAATGCGTATGTATT [XGTACX_site4666],6.89
3,ATGATCATAAAACACACACACAAAAAAAAAAAAAAA [CACACA_site1805],6.95
4,ATTAATTTTATATATGCACACAAAATATGTTCATAT [CACACA_site9350],7.13
5,TATGTATATATTTGTGCACACCAAAGTTTGATTTTA [CACACA_site1861],9.76
6,TTATAATAAACCTATACACACATAAATAAATAAATA [CACACA_site2581],7.04
7,AATAATATTTATTTTTGTACATATGTGCATTATAAA [XGTACX_site3682],7.13
8,TCAAGAATTATATAAACACACATACATACACCCATA [CACACA_site5126],7.28
9,CCATGCATACATTCTTGTACACATTTCTATTATGAG [XGTACX_site39],7.16
10,GAATTCAACAAAAAAAGTACTCTACATAAAATAATG [XGTACX_site175],7.2
11,ATATTGATGTATTGTTTTTTTTTTTTCTTTTTTTTT [CACACA_negctrl_site1238],6.72
12,GAACGAAACTTTCTTACACACATTGAAATTTTTTTC [CACACA_site1779],7.03
13,TTATAAAAGGACTTCTGTACGAATTTTTTTTAATAA [XGTACX_site1411],6.77
14,TACTCACAATGGGGTCTACAAAAAAAAAAAAATAAA [XGTACX_negctrl_site229],7.07
15,TATGCAAGGAACCACACACACACACCGAAATGTATA [CACACA_site4573],6.87
16,AATAAATAAATATATATATATATATAATATCATAAA [CACACA_negctrl_site337],7.29
17,TTTTTTATTAGTATCTGTACACATTGGTATTTGTAT [XGTACX_site6682],7.34
18,AGTTTATTTATATACACACACATATAAATATTATAG [CACACA_site6522],7.05
19,ATATATATTTATGTATCACACACAAAAAAAAAAAAT [CACACA_site7973],7.07
20,TATATATATATATATTGTACTTATGTTTATATTCAT [XGTACX_site6258],9.63
21,TTCTTTAAAATATTATGTACACATTGCGAACAGTTT [XGTACX_site5418],7.42
22,ATAAACTGAGTGGTTACACACAAAACCAATAACTTT [CACACA_site7601],6.62

row,Sequence,gcPBM binding intensity (ln)
1,ATATAGACACACACATGTACATATGCCAACGTGATA [XGTACX_site3828],7.12
2,ACTATATAATATAATATATTATAATATATTATATTA [GTGCAC_negctrl_site140],6.96
3,TTCTTAAAATATGAAAGTACATAGGCATTATATATT [XGTACX_site8400],7.01
4,TCCTTTCTTTTTTAAACATGCATATGTAATATAAAT [TGCATGCA_site979],7.18
5,CCTTCATCATATTTAACACACAGAGAAAAAGCGGAT [CACACA_site274],7.22
6,AAAAAAAAAAAAAAAAAAACCACAAACAAATATGAA [TGCATGCA_negctrl_site34],7.97
7,CTCGTATATATAATACGTACATATTATATATATATA [XGTACX_site1704],8.84
8,TTTACATACAAATTAACACACATATAGAAAAGAGAA [CACACA_site1889],7.32
9,AAAAAAAATAAACACACACACATACCCATAAATATA [CACACA_site5980],7.03
10,ATAATATAATAATACACACTCATTATATATATAAAG [CACACA_site3956],7.06
11,TTTTAAAATATATTTGTATATATATATATATATATA [XGTACX_negctrl_site536],9.99
12,TTTGAAATATTTATTTGTACATATACACACTTAAAT [XGTACX_site8321],7.07
13,ATATTATTTTGTCAGGGTACATTCCATAAGTTTTTT [XGTACX_site6855],6.99
14,TATTTATGTAGATACACACCCATGTTATATGGAGGT [CACACA_site3461],6.8
15,TTTCTTTTTTTTTTTATTTACCTGAATTATGTATTA [TGCATGCA_negctrl_site345],6.68
16,GCTTGTTCAAAAATGAGTACATACAAATAGTTGTAT [XGTACX_site1770],7.14
17,AATAGATTTTTATGCGTGCACACATTTAACAAAAAA,9.17
18,GTGCTAGTATTTAATACACACAATTGAAGTTCCTGA [CACACA_site1452],7.09
19,AAAAATATAAAGAAATGTACTTATAAAAATCCCTAC [XGTACX_site3824],7.15
20,TACACCAGTTGTGGGAGTACACAAAAAAAGGGAAAA [XGTACX_site6047],7.02
21,TTCTGTTCAAAATATGAACACACACCGATATATATA [CACACA_site8637],7.34
22,CTTTATCTTTTTCATTGTACTTTATTTTAAAATTAA [XGTACX_site4858],7.51
